# Data reported in ChEMBL document CHEMBL1156829.
# In all, about 5,400 compounds were measured (“IFI”: median about 2, highest 2% from about 22 on). This is one part of the list.
# Experiment: NOVARTIS: Inhibition Frequency Index (IFI) - the number of HTS assays where a compound showed > 50% inhibition/induction, expressed as a percentage of the number of assays in which the compound was tested.
# Format: functional
row,Structure (SMILES),IFI [%]
1,CCC[P+](CCC)(CCC)CC1OCc2ccccc2CO1,3.7
2,NCC(=O)N1CCn2c(nc(-c3ccccc3)c2Nc2ccc3c(c2)OCO3)C1,4.17
3,CC(C)Nc1nc(-c2cccnc2)nc2ccccc12,0
4,C[N+]1(CCOC(=O)CCC(=O)OCC[N+]2(C)CCCCCC2)CCCCCC1,3.45
5,CCC(c1ccc(F)cc1)n1cc(C(=O)NCCCN2CCC(C)CC2)nn1 (stereo not given),0
6,COc1cccc(NC(=O)c2cccc3c(=O)c4c([nH]c23)CCCC4)c1,0
7,Cc1cc(Nc2ccccc2)nc(Nc2ccccc2)n1,2.98
8,CCOc1cccc2c1N(C(=O)c1ccc(C)cc1)C(C)(C)C1=C2C2(SC(C(=O)OC)=C(C(=O)OC)S2)C(C(=O)OC)=C(C(=O)OC)S1,0
9,COc1ccc(C2CC(=O)C3=C(C2)NC(C)=C(C(=O)OC2CCCC2)C3c2cccc(C)c2)cc1OC (stereo not given),10.7
10,O=C(Nc1ccc(-c2noc(CCc3ccccc3)n2)cc1)c1cccs1,4.54
11,CCOc1cc(C2CC(=O)NC3=C2C(=O)CC(c2ccc(OC)c(OC)c2)C3)ccc1O (stereo not given),0
12,CCOC(=O)c1sc2ncnc(NCc3ccc(F)cc3)c2c1C,4.71
13,CC(C)=CCC/C(C)=C/CCC(C)NCCN1CCNCC1 (stereo not given),3.33
14,COc1ccccc1/C=C/CN1CCN(c2ccccn2)CC1,0
15,Cc1ccc(S(=O)(=O)Nn2c(SCC(=O)NCCc3ccc(S(N)(=O)=O)cc3)nc3ccccc3c2=O)cc1,0
16,Nc1nc(N)c2cc(S(=O)(=O)N3CCCCC3)ccc2n1,16.4
17,COC(=O)C(C)NC(=O)c1ccc(F)cc1 (stereo not given),0
18,COc1cc(-c2nc(-c3ccc(C)c(C)c3)c(-c3ccc(C)c(C)c3)[nH]2)cc(OC)c1O,8.79
19,COCCN(C)C(=O)COC(c1cccs1)c1cccnc1Cl (stereo not given),2.91
20,CC(C)CNC(=O)c1ccc(OC2CCN(CC3CCCCC3)CC2)c(Cl)c1,2.78
21,CN(CCCNc1ccnc2cc(Cl)ccc12)C(=O)COc1ccc(Cl)cc1,1.87
22,CCN1/C(=C/c2sc3cc(OC)c(OC)cc3[n+]2CC)C=Cc2ccccc21,23.1
23,CCOc1ccc2nc3cc(NC(=O)c4ccc(C)cc4)ccc3c(N)c2c1,0
24,CC1CN(C(=O)C(Cl)(Cl)Cl)C(C)CN1C(=O)C(Cl)(Cl)Cl (stereo not given),0
25,Cc1cc(C)nc(NNc2c([N+](=O)[O-])cccc2[N+](=O)[O-])n1,0

row,Structure (SMILES),IFI [%]
1,COc1cc(NC(=O)C(F)(F)F)c(C(=O)c2ccc(C(F)(F)F)cc2)cc1OC,1.96
2,CCN1C(=O)NC(c2cccc(NC(=O)Nc3cc(C(F)(F)F)cc(C(F)(F)F)c3)c2)C(C(=O)OC(C)C)=C1C (stereo not given),6.45
3,COc1ccc([N+](=O)[O-])cc1-c1ccc(/C=C(\C#N)c2nn(CCO)c(N)c2C#N)o1,1.61
4,CCC(c1nc2ccccc2c(=O)n1-c1ccc(F)c(Cl)c1)N(CCc1ccccc1)C(=O)COc1ccc(Cl)cc1 (stereo not given),2.83
5,N#C/C(=C\c1ccccc1OCc1ccc(Cl)cc1Cl)c1nc2ccccc2[nH]1,9.23
6,N=c1c2ccccc2nnn1-c1cccc(C(F)(F)F)c1,2.53
7,COc1cccc(C(C(=O)NC2CCCCC2)N(C(=O)c2snc(C(N)=O)c2N)c2ccc(C)cc2)c1OC (stereo not given),3.7
8,CCCCCCCn1c2c(c(=N)c3c1CCC3)CCCC2,14.3
9,CN(Cc1ccccc1)CC(O)COc1ccc(CNCCCN2CCCC2)cc1 (stereo not given),7.69
10,CC1CCC(C(C)C)C(OC(=O)Cn2c(-c3ccccc3)[n+](C)c3ccccc32)C1 (stereo not given),13.1
11,Cc1cc(-c2cnc(N3CCCC3)nc2C2CCN(Cc3cccnc3)CC2)on1,0
12,CC[n+]1ccc(C=Cc2ccc(N(C)C)cc2)cc1,10.4
13,COc1ccc(OC)c(-c2ccc(O)c(CNCCc3ccc(Cl)cc3)c2)c1,4.31
14,Cc1ccn2c(NC(C)(C)CC(C)(C)C)c(-c3ccccc3OC(=O)C(C)(C)C)nc2c1,2.73
15,COc1ccc(/C=C/C(=O)Nc2ccc(S(=O)(=O)N3CCOCC3)cc2)cc1,0
16,O=C(Nc1ccc(C(=O)Nc2ccc(C3=NCCCN3)cc2)cc1)Nc1ccc(C2=NCCCN2)cc1,3.51
17,COCCOC(=O)C1=C(C)NC2=C(C(=O)CC(c3ccc(OC)cc3)C2)C1c1ccc(Cl)cc1 (stereo not given),4.65
18,CCOc1cc(C2C(C(=O)OC)=CNC=C2C(=O)OC)cc(Br)c1OCC,2.35
19,CCCCC(CC)C(=O)N(C)CCCNc1ccnc2cc(Cl)ccc12 (stereo not given),3.64
20,O=C(O)c1cc([N+](=O)[O-])ccc1Oc1cncc(Cl)c1,0.833
21,CCC(NC1CCCCC1)c1nc2ccccc2c(=O)n1C (stereo not given),2.5
22,CC1CCCN(c2ccc(C(=O)NC3CC3)cc2[N+](=O)[O-])C1 (stereo not given),0
23,O=C1c2ccccc2-c2nnc(-c3ccccc3)cc21,11
24,COc1cc(NC(C)CCCN(Cc2ccccc2OC)C(=O)C(C)C)c2ncccc2c1 (stereo not given),5.71
25,O=C(Nc1ccc([N+](=O)[O-])cc1Cl)c1cc(Br)ccc1O,7.69

row,Structure (SMILES),IFI [%]
1,CCN1/C(=C/c2cccc[n+]2C)Sc2ccccc21,7.69
2,CCOC(=O)c1cnc2ccc(Cl)cc2c1NCCCN(C)C,0
3,OC(CN1CCN(Cc2ccccc2)CC1)Cn1c2ccc(Br)cc2c2cc(Br)ccc21 (stereo not given),4.08
4,COc1ccc(C2=C(c3ccc(OC)cc3)C3C(=O)C2C2C(=O)N(c4cccc5ccccc45)C(=O)C32)cc1 (stereo not given),0
5,COc1cccc(Nc2nc(NCC3CCCO3)c3ccccc3n2)c1 (stereo not given),0
6,CC(C)C(=O)N1CCOc2c(cc(-c3csc4ccccc34)cc2OCCc2ccccn2)C1,1.92
7,CCOc1ccc(C2C(C(=O)OC)=CNC=C2C(=O)OC)cc1Cl,0
8,CCCCCCN(C(=O)c1ccc(C(C)(C)C)cc1)C(CC)c1nc2cc(Cl)ccc2c(=O)n1CC (stereo not given),1.87
9,CC(=O)N(Cc1ccc(F)cc1)C1=C(NCc2ccccc2)C(=O)c2ccccc2C1=O,23.1
10,CCCn1c(SCC(=O)N2c3ccccc3CC2C)nc2c1c(=O)n(C)c(=O)n2C (stereo not given),3.54
11,COc1ccc(N(CC(=O)NCCc2ccc(F)cc2)S(=O)(=O)c2ccccc2)cc1,0
12,O=C(NNC(=O)c1cccc(F)c1)C(=O)N1CCOCC1,0
13,CC(=O)Nc1ccc2c(c1)CCCC2,0
14,COc1ccc(S(=O)(=O)N2CCCCC2C(=O)NC(CN2CCCC2)c2ccccc2)cc1 (stereo not given),0.971
15,C=CCSc1nn2c(=O)c(C)nnc2s1,0
16,Cc1cc(S(=O)(=O)N2CCN(Cc3ccccc3)CC2)ccc1-n1cnnn1,1.61
17,NC(=S)NN=C1c2ccccc2-c2nc3nonc3nc21,0
18,COc1cc(COc2cc(N)c(Cl)cc2C(=O)CCC2CCN(CCNS(C)(=O)=O)CC2)cc(OC)c1,2.56
19,O=C(O[Si](c1ccccc1)(c1ccccc1)c1ccccc1)c1ccccc1,0
20,CC(=O)Nc1ccc(NC2=CC(=NS(=O)(=O)c3ccccc3)c3ccccc3C2=O)cc1,7.69
21,Cc1nc(N2CCC(C)CC2)c2c(C)c(C(=O)Nc3ccc(C(F)(F)F)cc3)sc2n1,0
22,CC(C)(C)CC(C)(C)Nc1c(-c2ccccc2OC(=O)c2ccc([N+](=O)[O-])cc2)nc2ccccn12,2.88
23,CCOC(=O)c1sc(Nc2c(Cl)cc(S(N)(=O)=O)cc2Cl)nc1C,0
24,Nc1nnc(SCC(=O)Nc2nnc(SCC(=O)Nc3nccs3)s2)s1,3.37
25,O=C(NC1CCN(CC(O)CN(Cc2ccccc2)S(=O)(=O)c2ccccc2)C1)C1CCCCC1 (stereo not given),1.94

row,Structure (SMILES),IFI [%]
1,CCn1c(CSc2nc(C)cc(C)n2)nnc1SCC(N)=O,2.7
2,COCCN1C(=O)c2[nH]nc(-c3ccccc3O)c2C1c1ccc(SC)cc1 (stereo not given),0
3,Cc1ccc2[nH]c(/C(C#N)=C/c3cn(Cc4ccc(Cl)cc4Cl)nc3-c3ccccc3)nc2c1,2.31
4,c1ccc(/C2=N/c3ccccc3/N=C(/c3ccccc3)c3ccccc32)cc1,1.15
5,CC(C)CCN1C(=O)N(CCN(C)C)C(=O)C12CCN(Cc1ccc(O)cc1)CC2,2.47
6,Cc1nc(NC(=N)N)nc2c(C)cccc12,4.54
7,CCCCNc1cc(C)nc(NCc2ccccc2)n1,8.33
8,Cc1cccc(NC(=O)/C(C#N)=C/c2ccc(C)o2)c1,9.09
9,CCc1cc(C(=O)OC)c(NC(=S)NC(C)c2ccncc2)s1 (stereo not given),0
10,CCCc1c(C)nc2ccc(C)cc2c1O,0
11,CCN(CC)S(=O)(=O)c1ccc(-c2csc(=Nc3cccc4ccccc34)n2C)cc1,0
12,CC(C)CN1C(=O)c2ccccc2C(C(=O)Nc2cccc(C(F)(F)F)c2)C1c1cccs1 (stereo not given),3.03
13,CC(C)N1CC[C@@H](N2CCN(c3cccc(C(F)(F)F)c3)CC2)[C@@H](CCC(=O)N(C)C2CCN(C)CC2)C1,9
14,C1CCC(NP2(NC3CCCCC3)=NP(NC3CCCCC3)(NC3CCCCC3)=NP(NC3CCCCC3)(NC3CCCCC3)=N2)CC1,3.12
15,Cc1ccc(Nc2nc(-c3ccccn3)cs2)cc1,3.62
16,c1ccc2nc3c(nnc4ccccc43)nc2c1,15.4
17,Cc1ccc2nc3nc4c(C)cccc4c(N)c3cc2c1,8.96
18,O=C(Nc1ccc(-c2nc3ccccc3[nH]2)cc1)c1ccc(-c2cccc([N+](=O)[O-])c2)o1,5.77
19,COc1cccc(CNC(=O)C2CNCC2c2ccc(C(F)(F)F)cc2)c1 (stereo not given),1.39
20,CCOC(=O)C1CCN(C(=S)Nc2ccc3nsnc3c2)CC1,13
21,Cc1ccc(-c2nc(CS(=O)(=O)CC(=O)NC3CCC(C)CC3)c(C)o2)cc1 (stereo not given),0
22,O=C(Nc1ccc(C2=NCCN2)c(Cl)c1)c1cccc(C(=O)Nc2ccc(C3=NCCN3)c(Cl)c2)c1,0.917
23,CC(C)c1ccc(OCC(=O)NN=Cc2cccc([N+](=O)[O-])c2)cc1,0
24,NC(=O)C1CCCN(C(=O)COC(c2ccccc2)c2cccnc2Cl)C1 (stereo not given),1.94
25,O=[N+]([O-])c1ccc(N2CCCN(C(=S)Nc3ccc(F)cc3Br)CC2)nc1,0.84
